T1: human OX40 (human, UniProt P43489 29-277)
T1 construct: also called TNFRSF4; CD134
T1 sequence: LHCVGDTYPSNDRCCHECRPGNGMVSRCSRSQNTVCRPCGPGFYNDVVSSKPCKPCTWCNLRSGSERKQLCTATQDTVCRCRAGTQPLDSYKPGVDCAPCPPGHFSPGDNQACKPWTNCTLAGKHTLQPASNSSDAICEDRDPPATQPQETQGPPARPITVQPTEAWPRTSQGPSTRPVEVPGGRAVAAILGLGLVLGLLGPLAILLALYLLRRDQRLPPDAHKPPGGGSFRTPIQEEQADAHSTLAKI

T2: OX40 on Jurkat/OX40 reporter cells (Promega) (UniProt P43489 29-277)
T2 sequence (looked up): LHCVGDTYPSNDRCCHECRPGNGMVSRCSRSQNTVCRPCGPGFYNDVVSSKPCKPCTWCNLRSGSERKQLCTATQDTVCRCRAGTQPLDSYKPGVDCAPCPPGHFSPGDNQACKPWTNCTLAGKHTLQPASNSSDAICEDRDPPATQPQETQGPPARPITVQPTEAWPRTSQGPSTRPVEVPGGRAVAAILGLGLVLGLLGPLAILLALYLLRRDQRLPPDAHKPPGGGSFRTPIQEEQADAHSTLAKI

T3: cynomolgus monkey OX40 (cynomolgus monkey, UniProt P43489 29-277 (human entry))
T3 construct: Expressed on stably transfected CHO cells; also called cyno OX40
T3 chain: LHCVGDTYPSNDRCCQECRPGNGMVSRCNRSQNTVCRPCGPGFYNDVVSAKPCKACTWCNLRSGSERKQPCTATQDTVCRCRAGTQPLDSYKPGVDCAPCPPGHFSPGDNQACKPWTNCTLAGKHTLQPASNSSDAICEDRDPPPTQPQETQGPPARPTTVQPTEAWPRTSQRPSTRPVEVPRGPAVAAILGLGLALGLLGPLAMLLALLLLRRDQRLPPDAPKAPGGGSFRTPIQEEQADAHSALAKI


Columns and labels:
human OX40 [1] = target: T1, human OX40; assay: flow cytometry titration on transiently transfected HEK293 freestyle cells expressing full length human OX40 (sheet title: OX40+ 293)
Protocol: (§1) Hexavalent anti-OX40 sdAbs were made by joining three VHH domains to an Fc, which polypeptide forms a hexavalent dimer. Nonspecific binding of hexavalent 3×1D10v1-Fc (SEQ ID NO: 8; also referred to as Hex-1D10v1) and hexavalent 3×1D10v6-Fc (SEQ ID NO: 14; also referred to as Hex-1D10v6) was determined as follows. 3×1D10v1-Fc and 3×1D10v6-Fc were incubated for 48 hours at room temperature in a buffer of 20 mM His, 150 mM NaCl, 0.02% TWEEN-20, pH 9, with untransfected HEK293 freestyle cells or with transiently transfected HEK293 freestyle cells expressing the full length OX40. A fluorescent anti-Fc specific secondary antibody was used to detect bound 3×1D10v1-Fc and 3×1D10v6-Fc, and measured by flow cytometry using an Intellicyte iQue analyzer. Mean fluorescence intensity was plotted for each concentration of antibody.

human OX40 [2] = target: T1, human OX40; assay: flow cytometry on transiently transfected HEK293 freestyle cells expressing full length OX40; apparent KD
Protocol: as §1

[3] = target: T2, OX40 on Jurkat/OX40 reporter cells …; assay: cell-based or functional assay
human OX40 [4] = target: T1, human OX40; assay: cell-based or functional assay
cynomolgus monkey OX40 [5] = target: T3, cynomolgus monkey OX40; assay: flow cytometry on CHO cells stably expressing cynomolgus monkey OX40
Protocol: (§2) Binding of the sdAbs to human and cynomolgus monkey OX40 was determined as follows. Stably transfected CHO cells that express full length human OX40 or cynomolgus monkey OX40 were plated at 50,000 cells/well. Antibodies were titrated serially diluted 1:3 starting at 400 nM, and detected with anti-human Fc 488 secondary antibody. Flow cytometric analysis was performed on an Intellicyte iQue analyzer and fluorescence was plotted as mean fluorescence intensity.

human OX40 [6] = target: T1, human OX40; assay: flow cytometry on CHO cells stably expressing full length human OX40
Protocol: as §2

human OX40 [7] = target: T1, human OX40; assay: flow cytometry titration on cells expressing full length human OX40 (legend: CHO cells; sheet title: huOX40 transfected 293s)
Protocol: as §2

cynomolgus monkey OX40 [8] = target: T3, cynomolgus monkey OX40; assay: flow cytometry titration on cells expressing full length cynomolgus monkey OX40 (legend: CHO cells; sheet title: cyOX40 transfected 293s)
Protocol: as §2

| EC50 (read off the curve) (human OX40 [1]) [nM] | Kd (human OX40 [2]) [nM] | EC50 (read off the curve), NFkB-luciferase reporter in Jurkat/OX40 cells [3] [nM] | Kd (concentration at 50% response), NFkB-luciferase reporter in Jurkat/OX40 cells [3] [nM] | Kd (cynomolgus monkey OX40 [5]) [nM] | Kd (human OX40 [6]) [nM] | EC50 (read off the curve) (human OX40 [7]) [nM] | EC50 (read off the curve) (cynomolgus monkey OX40 [8]) [nM] | Binder | further results |
| --- | --- | --- | --- | --- | --- | --- | --- | --- | --- |
| ~0.9 | 0.82 | ~0.05 | 0.0464 | – | – | – | – | hexavalent 3×1D10v1-Fc (Fc fusion, also called Hex-1D10v1) EVQLLESGGGEVQPGGSLRLSCAASGFTFSDAFMYWVRQAPGKGLEWVSSISNRGLKTAYAESVKGRFTISRDNAKNTLYLQMSSLRAEDTAVYYCSRDVDGDFRGQGTLVTVKPGGSGGSEVQLLESGGGEVQPGGSLRLSCAASGFTFSDAFMYWVRQAPGKGLEWVSSISNRGLKTAYAESVKGRFTISRDNAKNTLYLQMSSLRAEDTAVYYCSRDVDGDFRGQGTLVTVKPGGSGGSEVQLLESGGGEVQPGGSLRLSCAASGFTFSDAFMYWVRQAPGKGLEWVSSISNRGLKTAYAESVKGRFTISRDNAKNTLYLQMSSLRAEDTAVYYCSRDVDGDFRGQGTLVTVKPGGGG[human IgG1 Fc cut from this listing] | – |
| ~0.9 | 0.9 | ~0.05 | 0.044 | – | – | – | – | hexavalent 3×1D10v6-Fc (Fc fusion, Hex-1D10v6); also called Hex-1D10v6) EVQLLESGGGEVQPGGSLRLSCAASGFTFSDAFMYWVRQAPGKEREWVSSISNRGLKTAYAESVKGRFTISRDNAKNTLYLQMSSLRAEDTAVYYCSRDVDADFRGQGTLVTVKPGGSGGSEVQLLESGGGEVQPGGSLRLSCAASGFTFSDAFMYWVRQAPGKEREWVSSISNRGLKTAYAESVKGRFTISRDNAKNTLYLQMSSLRAEDTAVYYCSRDVDADFRGQGTLVTVKPGGSSGSEVQLLESGGGEVQPGGSLRLSCAASGFTFSDAFMYWVRQAPGKEREWVSSISNRGLKTAYAESVKGRFTISRDNAKNTLYLQMSSLRAEDTAVYYCSRDVDADFRGQGTLVTVKPGGGG[human IgG1 Fc cut from this listing] | EC50 [nM], CD4+ CD25 MFI, donor L556 (human OX40 [4]): 0.026 nM; EC50 [nM], CD4+ CD25 MFI, donor Leuko 9 (human OX40 [4]): 0.04 nM; EC50 [nM], CD4+ CD25 MFI, donor Leuko 20 (human OX40 [4]): 0.008 nM; EC50 [nM], CD4+ CD25 MFI, donor Leuko 22 (human OX40 [4]): 0.026 nM; EC50 [nM], CD4+ CD71 MFI, donor L556 (human OX40 [4]): 0.032 nM; EC50 [nM], CD4+ CD71 MFI, donor Leuko 9 (human OX40 [4]): 0.069 nM; EC50 [nM], CD4+ CD71 MFI, donor Leuko 20 (human OX40 [4]): 0.007 nM; EC50 [nM], CD4+ CD71 MFI, donor Leuko 22 (human OX40 [4]): 0.022 nM; EC50 [nM], CD4 Proliferation, donor L556 (human OX40 [4]): 0.024 nM; EC50 [nM], CD4 Proliferation, donor Leuko 9 (human OX40 [4]): 0.004 nM; EC50 [nM], CD4 Proliferation, donor Leuko 20 (human OX40 [4]): 0.008 nM; EC50 [nM], CD4 Proliferation, donor Leuko 22 (human OX40 [4]): 0.016 nM; EC50 [nM], IFNγ, donor L556 (human OX40 [4]): 0.077 nM; EC50 [nM], IFNγ, donor Leuko 9 (human OX40 [4]): 0.094 nM; EC50 [nM], IFNγ, donor Leuko 20 (human OX40 [4]): 0.019 nM; EC50 [nM], IFNγ, donor Leuko 22 (human OX40 [4]): 0.032 nM |
| – | – | – | – | 0.66 | 0.81 | ~0.8 | ~0.7 | 1D10v6-Fc (bivalent) (Fc fusion, VHH-Fc polypeptide; also called bivalent 1D10v6-Fc) EVQLLESGGGEVQPGGSLRLSCAASGFTFSDAFMYWVRQAPGKEREWVSSISNRGLKTAYAESVKGRFTISRDNAKNTLYLQMSSLRAEDTAVYYCSRDVDADFRGQGTLVTVKPGGGG[human IgG1 Fc cut from this listing] | – |
| – | – | – | – | 0.79 | 0.86 | ~0.8 | ~0.8 | 1D10v1-Fc (bivalent) (Fc fusion, VHH-Fc polypeptide; also called bivalent sdAb 1D10v1) EVQLLESGGGEVQPGGSLRLSCAASGFTFSDAFMYWVRQAPGKGLEWVSSISNRGLKTAYAESVKGRFTISRDNAKNTLYLQMSSLRAEDTAVYYCSRDVDGDFRGQGTLVTVKPGGGG[human IgG1 Fc cut from this listing] | – |
